# Measurements from the supplement of paper PMC8728848.
# Some of the results follow.
# B1: HBHA-Rv (Mycobacterium tuberculosum), P0A5P6 (protein)
# chain: MAENSNIDDIKAPLLAALGAADLALATVNELITNLRERAEETRTDTRSRVEESRARLTKLQEDLPEQLTELREKFTAEELRKAAEGYLEAATSRYNELVERGEAALERLRSQQSFEEVSARAEGYVDQAVELTQEALGTVASQTRAVGERAAKLVGIELPKKAAPAKKAAPAKKAAPAKKAAAKKAPAKKAAAKKVTQK
# Legend:
# Test in all cases: glycan array binding signal (z-score within array); higher = stronger binding
# Conditions in all cases: glycan notation: IUPAC condensed, linker removed
# [1] = molecular target: Neu5Ac(a2-3)Gal(b1-4)GlcNAc(b1-2)[Neu5Ac(a2-3)Gal(b1-4)GlcNAc(b1-4)]Man(a1-3)[GlcNAc(b1-4)][Neu5Ac(a2-3)Gal(b1-4)GlcNAc(b1-2)[Neu5Ac(a2-3)Gal(b1-4)GlcNAc(b1-6)]Man(a1-6)]Man(b1-4)GlcNAc(b1-4)GlcNAc
# Procedure, shortened: (§1)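 From the Consortium for Functional Glycomics database, 3228 arrays were curated, keeping only those whose protein sequence was available. Binding is given as a within-array Z-score averaged across arrays sharing a protein sequence and across linkers. Negative Z-scores can be read as non-binding.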
# [2] = molecular target: Neu5Ac(a2-3)Gal(b1-4)GlcNAc(b1-2)[Neu5Ac(a2-3)Gal(b1-4)GlcNAc(b1-4)]Man(a1-3)[GlcNAc(b1-4)][Neu5Ac(a2-3)Gal(b1-4)GlcNAc(b1-4)Man(a1-6)]Man(b1-4)GlcNAc(b1-4)GlcNAc
# Procedure, shortened: as §1
# [3] = molecular target: Neu5Ac(a2-3)Gal(b1-4)GlcNAc(b1-2)[Neu5Ac(a2-3)Gal(b1-4)GlcNAc(b1-6)]Man(a1-6)[Neu5Ac(a2-3)Gal(b1-4)GlcNAc(b1-2)Man(a1-3)]Man(b1-4)GlcNAc(b1-4)GlcNAc
# Procedure, shortened: as §1
# [4] = molecular target: Neu5Ac(a2-3)Gal(b1-4)GlcNAc(b1-2)[Neu5Ac(a2-3)Gal(b1-4)GlcNAc(b1-6)]Man(a1-6)[Neu5Ac(a2-3)Gal(b1-4)GlcNAc(b1-2)Man(a1-3)][GlcNAc(b1-4)]Man(b1-4)GlcNAc(b1-4)GlcNAc
# Procedure, shortened: as §1
# [5] = molecular target: Neu5Ac(a2-3)Gal(b1-4)GlcNAc(b1-3)Gal
# Procedure, shortened: as §1
# [6] = molecular target: Neu5Ac(a2-3)Gal(b1-4)GlcNAc(b1-3)Gal(b1-3)GlcNAc
# Procedure, shortened: as §1
# [7] = molecular target: Neu5Ac(a2-3)Gal(b1-4)GlcNAc(b1-3)Gal(b1-4)GlcNAc
# Procedure, shortened: as §1
# [8] = molecular target: Neu5Ac(a2-3)Gal(b1-4)GlcNAc(b1-3)Gal(b1-4)GlcNAc(b1-2)Man(a1-3)[Neu5Ac(a2-3)Gal(b1-4)GlcNAc(b1-3)Gal(b1-4)GlcNAc(b1-2)Man(a1-6)]Man(b1-4)GlcNAc(b1-4)GlcNAc
# Procedure, shortened: as §1
# [9] = molecular target: Neu5Ac(a2-3)Gal(b1-4)GlcNAc(b1-3)Gal(b1-4)GlcNAc(b1-3)Gal(b1-4)GlcNAc
# Procedure, shortened: as §1
# [10] = molecular target: Neu5Ac(a2-3)Gal(b1-4)GlcNAc(b1-3)Gal(b1-4)GlcNAc(b1-3)Gal(b1-4)GlcNAc(b1-2)Man(a1-3)[Neu5Ac(a2-3)Gal(b1-4)GlcNAc(b1-3)Gal(b1-4)GlcNAc(b1-3)Gal(b1-4)GlcNAc(b1-2)Man(a1-6)]GalNAc
# Procedure, shortened: as §1
# [11] = molecular target: Neu5Ac(a2-3)Gal(b1-4)GlcNAc(b1-3)Gal(b1-4)GlcNAc(b1-3)GalNAc
# Procedure, shortened: as §1
# [12] = molecular target: Neu5Ac(a2-3)Gal(b1-4)GlcNAc(b1-3)Gal(b1-4)GlcNAc(b1-3)[Neu5Ac(a2-3)Gal(b1-4)GlcNAc(b1-3)Gal(b1-4)GlcNAc(b1-6)]GalNAc
# Procedure, shortened: as §1
# [13] = molecular target: Neu5Ac(a2-3)Gal(b1-4)GlcNAc(b1-3)Gal(b1-4)GlcNAc(b1-6)[Gal(b1-3)]GalNAc
# Procedure, shortened: as §1
# [14] = molecular target: Neu5Ac(a2-3)Gal(b1-4)GlcNAc(b1-3)Gal(b1-4)[Fuc(a1-3)]GlcNAc
# Procedure, shortened: as §1
# [15] = molecular target: Neu5Ac(a2-3)Gal(b1-4)GlcNAc(b1-3)GalNAc
# Procedure, shortened: as §1
# [16] = molecular target: Neu5Ac(a2-3)Gal(b1-4)GlcNAc(b1-3)[Neu5Ac(a2-3)Gal(b1-4)GlcNAc(b1-6)]GalNAc
# Procedure, shortened: as §1
# [17] = molecular target: Neu5Ac(a2-3)Gal(b1-4)GlcNAc(b1-6)GalNAc
# Procedure, shortened: as §1
# [18] = molecular target: Neu5Ac(a2-3)Gal(b1-4)GlcNAc(b1-6)[Gal(b1-3)]GalNAc
# Procedure, shortened: as §1
# [19] = molecular target: Neu5Ac(a2-3)Gal(b1-4)GlcNAc(b1-6)[Neu5Ac(a2-3)Gal(b1-3)]GalNAc
# Procedure, shortened: as §1
# [20] = molecular target: Neu5Ac(a2-3)Gal(b1-4)GlcNAc6S
# Procedure, shortened: as §1
# [21] = molecular target: Neu5Ac(a2-3)Gal(b1-4)[Fuc(a1-3)]GlcNAc
# Procedure, shortened: as §1
# [22] = molecular target: Neu5Ac(a2-3)Gal(b1-4)[Fuc(a1-3)]GlcNAc(b1-2)Man
# Procedure, shortened: as §1
# [23] = molecular target: Neu5Ac(a2-3)Gal(b1-4)[Fuc(a1-3)]GlcNAc(b1-3)Gal
# Procedure, shortened: as §1
# [24] = molecular target: Neu5Ac(a2-3)Gal(b1-4)[Fuc(a1-3)]GlcNAc(b1-3)Gal(b1-4)GlcNAc
# Procedure, shortened: as §1
# [25] = molecular target: Neu5Ac(a2-3)Gal(b1-4)[Fuc(a1-3)]GlcNAc(b1-3)Gal(b1-4)[Fuc(a1-3)]GlcNAc(b1-3)Gal(b1-4)[Fuc(a1-3)]GlcNAc
# Procedure, shortened: as §1
# [26] = molecular target: Neu5Ac(a2-3)Gal(b1-4)[Fuc(a1-3)]GlcNAc(b1-3)GalNAc
# Procedure, shortened: as §1
# [27] = molecular target: Neu5Ac(a2-3)Gal(b1-4)[Fuc(a1-3)]GlcNAc(b1-6)[Gal(b1-3)]GalNAc
# Procedure, shortened: as §1
# [28] = molecular target: Neu5Ac(a2-3)Gal(b1-4)[Fuc(a1-3)]GlcNAc(b1-6)[Neu5Ac(a2-3)Gal(b1-3)]GalNAc
# Procedure, shortened: as §1
# [29] = molecular target: Neu5Ac(a2-3)Gal(b1-4)[Fuc(a1-3)]GlcNAc6S
# Procedure, shortened: as §1
# [30] = molecular target: Neu5Ac(a2-3)Gal6S(b1-4)GlcNAc
# Procedure, shortened: as §1
# [31] = molecular target: Neu5Ac(a2-3)Gal6S(b1-4)[Fuc(a1-3)]GlcNAc
# Procedure, shortened: as §1
# [32] = molecular target: Neu5Ac(a2-3)GalNAc
# Procedure, shortened: as §1
# [33] = molecular target: Neu5Ac(a2-3)GalNAc(b1-4)GlcNAc
# Procedure, shortened: as §1
# [34] = molecular target: Neu5Ac(a2-3)[GalNAc(b1-4)]Gal(b1-4)Glc
# Procedure, shortened: as §1
# [35] = molecular target: Neu5Ac(a2-3)[GalNAc(b1-4)]Gal(b1-4)GlcNAc
# Procedure, shortened: as §1
# [36] = molecular target: Neu5Ac(a2-3)[GalNAc(b1-4)]Gal(b1-4)GlcNAc(b1-3)GalNAc
# Procedure, shortened: as §1
# [37] = molecular target: Neu5Ac(a2-3)[Neu5Ac(a2-6)]GalNAc
# Procedure, shortened: as §1
# [38] = molecular target: Neu5Ac(a2-6)Gal
# Procedure, shortened: as §1
# [39] = molecular target: Neu5Ac(a2-6)Gal(b1-3)GlcNAc(b1-3)[Gal(b1-4)GlcNAc(b1-6)]Gal(b1-4)Glc
# Procedure, shortened: as §1
# [40] = molecular target: Neu5Ac(a2-6)Gal(b1-4)Glc
# Procedure, shortened: as §1
# [41] = molecular target: Neu5Ac(a2-6)Gal(b1-4)GlcNAc
# Procedure, shortened: as §1
# [42] = molecular target: Neu5Ac(a2-6)Gal(b1-4)GlcNAc(b1-2)Man
# Procedure, shortened: as §1
# [43] = molecular target: Neu5Ac(a2-6)Gal(b1-4)GlcNAc(b1-2)Man(a1-3)Man(b1-4)GlcNAc(b1-4)GlcNAc
# Procedure, shortened: as §1
# [44] = molecular target: Neu5Ac(a2-6)Gal(b1-4)GlcNAc(b1-2)Man(a1-3)[Gal(b1-4)GlcNAc(b1-2)Man(a1-6)]Man(b1-4)GlcNAc(b1-4)GlcNAc
# Procedure, shortened: as §1
# [45] = molecular target: Neu5Ac(a2-6)Gal(b1-4)GlcNAc(b1-2)Man(a1-3)[GlcNAc(b1-2)Man(a1-6)]Man(b1-4)GlcNAc(b1-4)GlcNAc
# Procedure, shortened: as §1
binder,measurement,setting,value
B1,glycan array binding signal (z-score),[1],-0.325
same,glycan array binding signal (z-score),[2],-0.397
same,glycan array binding signal (z-score),[3],-0.3
same,glycan array binding signal (z-score),[4],-0.376
same,glycan array binding signal (z-score),[5],-0.382
same,glycan array binding signal (z-score),[6],-0.391
same,glycan array binding signal (z-score),[7],-0.31
same,glycan array binding signal (z-score),[8],-0.297
same,glycan array binding signal (z-score),[9],-0.345
same,glycan array binding signal (z-score),[10],-0.268
same,glycan array binding signal (z-score),[11],-0.422
same,glycan array binding signal (z-score),[12],-0.477
same,glycan array binding signal (z-score),[13],-0.483
same,glycan array binding signal (z-score),[14],-0.473
same,glycan array binding signal (z-score),[15],-0.379
same,glycan array binding signal (z-score),[16],-0.398
same,glycan array binding signal (z-score),[17],0.196
same,glycan array binding signal (z-score),[18],-0.331
same,glycan array binding signal (z-score),[19],-0.421
same,glycan array binding signal (z-score),[20],-0.128
same,glycan array binding signal (z-score),[21],-0.199
same,glycan array binding signal (z-score),[22],-0.234
same,glycan array binding signal (z-score),[23],-0.179
same,glycan array binding signal (z-score),[24],-0.07
same,glycan array binding signal (z-score),[25],-0.212
same,glycan array binding signal (z-score),[26],0.06
same,glycan array binding signal (z-score),[27],-0.144
same,glycan array binding signal (z-score),[28],-0.398
same,glycan array binding signal (z-score),[29],-0.363
same,glycan array binding signal (z-score),[30],0.355
same,glycan array binding signal (z-score),[31],0.273
same,glycan array binding signal (z-score),[32],0.335
same,glycan array binding signal (z-score),[33],-0.046
same,glycan array binding signal (z-score),[34],0.149
same,glycan array binding signal (z-score),[35],-0.242
same,glycan array binding signal (z-score),[36],-0.415
same,glycan array binding signal (z-score),[37],-0.374
same,glycan array binding signal (z-score),[38],-0.159
same,glycan array binding signal (z-score),[39],-0.459
same,glycan array binding signal (z-score),[40],-0.211
same,glycan array binding signal (z-score),[41],0.008
same,glycan array binding signal (z-score),[42],-0.298
same,glycan array binding signal (z-score),[43],-0.457
same,glycan array binding signal (z-score),[44],-0.354
same,glycan array binding signal (z-score),[45],0.173
